Test results taken from PubChem BioAssay AID1345083 (National Center for Advancing Translational Sciences (NCATS), 2018).
Out of some 94,000 compounds screened, about 6,200 (6.6%) were called active. The inconclusive results got no clear call from the source; some entries with a clear call stand among them for comparison. The call rests on the fitted dose curve; in most records, active means well fitted inhibition curve with a large enough effect; inconclusive means small, poorly fitted or top-dose-only effect; inactive means flat fitted curve, though single readings scatter. Potencies of inconclusive entries are doubtful fits and often do not repeat.

Assay: Cytotoxic Profiling in HEK 293 Cell Line of Diverse Libraries Using Quantitative High-Throughput Screening; further: nearly all actives have a fitted effect of over 60% in size
Details: HEK 293 viability, ATP luminescence (CellTiter-Glo), 48-72 h; activity change, negative = cytotoxicity: at 115 µM (top of the series) unless noted; series mostly up to 115 µM
Method in brief: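 HEK 293 cells seeded at 250 cells/well were exposed to compound for 48 or 72 hr at 37 degree Celsius. Viability taken as ATP content by CellTiter-Glo luminescence.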
On the % scale 0 is the no-effect control and ±100 the full control effect; potency means the concentration at half of the fitted maximal effect; tags describe the fitted curve by direction and shape.

Row | Compound | Potency | activity change, negative = cytotoxicity | outcome
1 | COCC1CCN(c2ccc(-c3nc(-c4ccccc4C)no3)cn2)C1 (stereo unspecified) | inconclusive: 17.8 µM [inhibitor, full curve, poor fit] |  | 
2 | CN1CCCN(S(=O)(=O)c2ccc(C(F)(F)F)cc2)c2ccccc21 | active: 39.8 µM |  | 
3 | COc1ccccc1CN(Cc1ccccc1OC)[C@H]1C[C@@H](Cc2cc(CN3CCOCC3)on2)C1(C)C | inconclusive: 56.2 µM [inhibitor, partial curve, poor fit] |  | 
4 | CCC(=O)N1Cc2ccccc2CC2(CCN(Cc3ccccn3)CC2)C1 |  | inactive: -14.1% | 
5 | O=C(c1cccnc1)N1C[C@@H](F)[C@@H](OCc2nc3ccc(C(F)(F)F)cc3[nH]2)C1 |  | inactive: -27.9% [at 172 µM] | 
6 | NCCn1cc(C(=O)NCC(O)CN2CCCCCC2)nn1 (stereo unspecified) |  |  | inactive
7 | CCOC(=O)[C@@H]1CN(C(=O)Cc2ccc(OC)cc2)[C@H]2c3ccc(OC)cc3O[C@@H]12 | inconclusive: 35.5 µM [inhibitor, partial curve, poor fit] |  | 
8 | O=C(CCC[C@H]1NC[C@@H]2CC1CN(Cc1ccccc1)C2)NCc1ccc(F)cc1 | inconclusive: 89.1 µM [inhibitor, single point] |  | 
9 | C[C@@]12CO[C@H](c3ccccc3)C[C@@H]1C[C@@H](N1CCN(Cc3ccccn3)CC1)C2 | inconclusive: 39.8 µM [inhibitor, partial curve, poor fit] |  | 
10 | O=C(Nc1nccs1)[C@@H]1C[C@@H](c2cccc(C(F)(F)F)c2)N(CC2CCOCC2)C1 | inconclusive: 70.8 µM [inhibitor, partial curve, poor fit] |  | 
11 | CNC(=O)[C@@H](c1ccccc1)N1CCC[C@H]1C(=O)NC1CCCCC1 |  | inactive: 4.42% [at 172 µM] | 
12 | Cc1cccc(CC(=O)N2CCCC(CN3CCCC3)CC2)c1 (stereo unspecified) | inconclusive: 89.1 µM [inhibitor, partial curve, poor fit] |  | 
13 | Cn1ncc2c(C(=O)NCC(F)(F)F)cc(C(C)(C)C)nc21 | inconclusive: 89.1 µM [inhibitor, partial curve, poor fit] |  | 
14 | O=C1c2cnc(-c3ccccc3)nc2OCCN1c1cccc(C(F)(F)F)c1 | inconclusive: 89.1 µM [inhibitor, partial curve, poor fit] |  | 
15 | COCCNC(=O)C(C)(C)Oc1nn(Cc2cccc(Cl)c2)c2ccccc12 | active: 79.4 µM |  | 
16 | CN1C(=O)[C@H](OC(N)=O)[C@@H](C(=O)Nc2ccccc2)C12CCN(C(=O)c1ccco1)CC2 |  | inactive: -30.4% | 
17 | COc1ccc(CCNC(=O)c2ccc3oc(-c4ccnc(Cl)c4)nc3c2)cc1 |  | inactive: -15.3% | 
18 | CN1CC(C(=O)NCc2ccc(Cl)cc2)NC1=O (stereo unspecified) |  |  | inactive [at 172 µM]
19 | COc1ccc(-c2cc(N3CCC(NC(=O)c4cc(F)ccc4Cl)CC3)n[nH]2)cc1 | inconclusive: 50.1 µM [inhibitor, partial curve, poor fit] |  | 
20 | COc1nc2nc(CC3CC3)n(C)c2cc1-c1ccnc(C)c1 | inconclusive: 70.8 µM [inhibitor, partial curve] |  | 
21 | COCCNC(=O)c1ccc(CC2CCN(C(=O)CCc3ccc(OC)cc3)CC2)cc1 | inconclusive: 44.7 µM [inhibitor, partial curve, poor fit] |  | 

Row | Compound | Potency | activity change, negative = cytotoxicity | outcome
22 | CCCCCNC(=O)C1CCN(C(=O)c2ccc(-c3cncnc3)cc2)CC1 |  | inactive: 0.323% | 
23 | CC(C)NC(=O)c1ccc2oc(-c3ccccn3)nc2c1 | inconclusive: 79.4 µM [inhibitor, partial curve] |  | 
24 | O=c1[nH]c(C2CCCN(Cc3cccc4ccccc34)C2)nn1-c1ccccc1 (stereo unspecified) | inconclusive: 50.1 µM [inhibitor, partial curve, poor fit] |  | 
25 | CC(C)CN1C(=O)c2ccccc2C(C(=O)N2CCSCC2)C12CCCC2 (stereo unspecified) | inconclusive: 89.1 µM [inhibitor, single point] |  | 
26 | COc1ccccc1-c1ccc(CN2C3CCC2CN(C(=O)c2ccncc2)C3)cc1 | inconclusive: 50.1 µM [inhibitor, partial curve, poor fit] |  | 
27 | COc1ccccc1C(=O)Nc1ccc2c(c1)CN(Cc1ccccc1)C(=O)C(C)O2 (stereo unspecified) | inconclusive: 10 µM [inhibitor, full curve, poor fit] |  | 
28 | CC(C)c1noc([C@@H]2C[C@H](NC(=O)Nc3ccc(F)cc3)CN2C)n1 |  | inactive: -27.7% [at 172 µM] | 
29 | COc1ccccc1CCC(=O)NC1CCCN(c2cc(-c3ccc(F)cc3)[nH]n2)C1 (stereo unspecified) | inconclusive: 79.4 µM [inhibitor, partial curve, poor fit] |  | 
30 | COc1ccccc1C(=O)N1CCn2c(nnc2-c2ccc(NC(C)=O)cc2)C1 | inconclusive: 89.1 µM [inhibitor, single point] |  | 
31 | CN1CCCC2(C1)CN(Cc1cccnc1)c1ccc(C(=O)NCC3CCCCC3)cc12 (stereo unspecified) | active: 89.1 µM |  | 
32 | O=C(Nc1ccc(F)cc1)N[C@H]1[C@H](O)[C@@H](N2CCN(c3ccccc3)CC2)[C@@H]2OC[C@H]1O2 | inconclusive: 8.91 µM [inhibitor, full curve, poor fit] |  | 
33 | O=C(c1ccco1)N1CCC2(CC1)CC(N(Cc1ccc(F)cc1)C1CC1)CCO2 (stereo unspecified) | inconclusive: 39.8 µM [inhibitor, partial curve, poor fit] |  | 
34 | CC1(C)[C@H](Cc2cc(CN3CCOCC3)on2)C[C@@H]1NC(=O)c1ccnc(Cl)c1 | inconclusive: 100 µM [inhibitor, partial curve, poor fit] |  | 
35 | Cn1ncc2c(C(=O)N3CCCC3)cc(-c3ccccc3F)nc21 | inconclusive: 112 µM [inhibitor, partial curve, poor fit] |  | 
36 | CC(C)C(=O)N1CCc2[nH]nc(C(=O)NCCCc3ccccc3)c2C1 | inconclusive: 14.1 µM [inhibitor, full curve, poor fit] |  | 
37 | CNCCN(C)C(=O)C1CCCN(C2CCN(C3Cc4ccccc4C3)CC2)C1 (stereo unspecified) | inconclusive: 56.2 µM [inhibitor, partial curve, poor fit] |  | 
38 | CSCc1ccc(C(=O)N2CCOCC(O)(CN3CCCC3)C2)o1 (stereo unspecified) | inconclusive: 89.1 µM [inhibitor, single point] |  | 
39 | COC(=O)[C@@H]1Cc2c([nH]c3ccccc23)[C@H]2C[C@@H](NCCO)C[C@@H](c3ccccc3)N21 | active: 39.8 µM |  | 
40 | Cn1cccc1C(=O)N1CCO[C@@H](COc2ccccn2)[C@@H]1c1ccccc1 | inconclusive: 44.7 µM [inhibitor, partial curve] |  | 
41 | O=C(CCC1CCCC1)N1CCC2(CCCCO2)CC1 | inconclusive: 20 µM [inhibitor, partial curve, poor fit] |  | 
42 | Cc1ccc(-c2nc(C(=O)NCc3ccc(F)cc3Cl)no2)cc1 | inconclusive: 89.1 µM [inhibitor, single point] |  | 

Row | Compound | Potency | activity change, negative = cytotoxicity | outcome
43 | O=C(NCc1cccc(C(F)(F)F)c1)c1nc2sccn2c1-c1ccc(C(F)(F)F)cc1 | active: 39.8 µM |  | 
44 | CCCC(=O)N1Cc2ccccc2CC2(CCN(CCC)C2)C1 (stereo unspecified) | inconclusive: 44.7 µM [inhibitor, partial curve, poor fit] |  | 
45 | CC(=O)N1CCC(c2nnc3n2C(C(=O)Nc2ccc(F)cc2)CC3)CC1 (stereo unspecified) |  | inactive: -7.14% [at 172 µM] | 
46 | COc1ccc(N2CC(C(=O)N3CCC(C(=O)NC(C)C)C3)NC2=O)cc1 (stereo unspecified) | inactive |  | 
47 | COCC1CN(C)CC12CCN(S(=O)(=O)c1ccc(C#N)cc1)CC2 (stereo unspecified) | inconclusive: 79.4 µM [inhibitor, single point] |  | 
48 | COCCN1CCNc2nc(COc3cccc(C#N)c3)n(Cc3ccccc3)c2C1=O | inconclusive: 112 µM [inhibitor, single point] |  | 
49 | O=C(C1COc2ccccc2O1)N1CCc2nc3cc(-c4ccccc4)[nH]n3c(=O)c2C1 (stereo unspecified) | inconclusive: 89.1 µM [inhibitor, single point] |  | 
50 | Cc1cccc(CN2CCc3nc(C(=O)Nc4ccc(Cl)cc4)oc3CC2)c1 | inconclusive: 35.5 µM [inhibitor, full curve] |  | 
51 | Cc1ccc(C)c(NC(=O)Cn2nc3c(cc2=O)CCCCC3)c1 |  | inactive: 19.9% | 
52 | CCNC(=O)Nc1ccc2c(c1)CN(Cc1ccc(Cl)cc1)C(=O)C(C)O2 (stereo unspecified) | inconclusive: 44.7 µM [inhibitor, partial curve, poor fit] |  | 
53 | Cc1ccc(S(=O)(=O)N2CCC(n3cnnc3C3CC3)CC2)cc1Cl | inconclusive: 56.2 µM [inhibitor, partial curve, poor fit] |  | 
54 | O=C(Nc1ccccc1)N1CCC(C(=O)N2CCC(c3nc4ncccc4[nH]3)CC2)CC1 |  |  | inactive
55 | O=C(NC1CCN(c2ccc3nnc(C4CC4)n3n2)CC1)c1ccc(F)cc1 | inconclusive: 44.7 µM [inhibitor, partial curve, poor fit] |  | 
56 | Cc1ccc(CN[C@@H]2CO[C@H](CNS(=O)(=O)c3ccc(C)cc3)[C@H]2O)cc1 | inconclusive: 89.1 µM [inhibitor, partial curve, poor fit] |  | 
57 | O=C(Cc1c[nH]c2ncc(-c3ccc4c(c3)OCO4)cc12)N1CCOCC1 | inconclusive: 79.4 µM [inhibitor, partial curve, poor fit] |  | 
58 | COc1ccc(C(=O)N[C@@H]2C=C[C@@H](c3c(C)nn(-c4ccc(C(F)(F)F)cc4)c3C)C2)cc1 | inconclusive: 50.1 µM [inhibitor, partial curve, poor fit] |  | 
59 | CC(C)CN1CCN(C2CCOC3(CCN(C(=O)Cc4cccc(F)c4)CC3)C2)CC1 (stereo unspecified) | inconclusive: 44.7 µM [inhibitor, partial curve, poor fit] |  | 
60 | COc1ccc(-c2cc(C(=O)NCc3cccc(C(F)(F)F)c3)c3cnn(C)c3n2)cc1 | active: 35.5 µM |  | 
61 | CCC1=C(C(=O)OC)C(c2ccc(C)cc2C)N2C(CC(=O)N3CCCCC3C)=CSC2=N1 (stereo unspecified) | inconclusive: 50.1 µM [inhibitor, partial curve, poor fit] |  | 
